Laboratory results taken from ChEMBL document CHEMBL4888484, “Replenishing the malaria drug discovery pipeline: Screening and hit evaluation of the MMV Hit Generation Library 1 (HGL1) against asexual blood stage Plasmodium falciparum ,using a nano luciferase reporter read-out” (2022).
In all, about 150,000 compounds went through this assay and about 540 (0.36%) showed an effect of 50% or more. The list shows a part of the results.

test system: Plasmodium falciparum; test: Primary screen in NF54 nanoGlo assay, in single point, at 2uM, 72h; a lower Z score goes with more inhibition; format: functional, Erythrocyte; settings: timepoint 72 hour

Compound	% Inhibition [%]	Z score
CN(C)C(=O)c1ccc2c(c1)N(CC(=O)N1CCN(Cc3ccccc3)CC1)C(=O)CO2	-8	1.11
Cn1cc(CCNC(=O)c2cn(CC(N)=O)nn2)c2ccc(Cl)cc21	4	-0.48
COC(=O)C1C2CCCC2CN1C(=O)c1cn[nH]c1 (stereo not given)	-11	1.16
Cc1cc(C(=O)Nc2nnc(Cc3ccc(Cl)s3)o2)on1	-3	0.61
CN(CC(=O)NCC1(O)CCC(C(C)(C)C)CC1)S(C)(=O)=O (stereo not given)	0	0.05
O=C(Nc1ncccc1O)C1CCCC1	-12	1.16
O=S1(=O)CCC(NCC(O)c2ccco2)c2cc(Cl)ccc21 (stereo not given)	-12	1.47
Cc1ccsc1CN1CCC[C@@](O)(CO)CC1	-5	0.89
C[C@H]1CN(C(=O)C(=O)Nc2ccc(OC3CCCC3)c(Cl)c2)CC(C)(C)O1	4	-0.57
NC(=O)CC1CC(NC(=O)Nc2ccnc(-c3ccccc3)c2)C1 (stereo not given)	-1	0.15
C[C@@H](Cc1ccco1)N1CC(O)=C(c2nc3ccccc3[nH]2)C1=N	4	-0.65
Cc1cc([C@]2(C)NC(=O)N(Cc3ncc(C(C)(C)C)o3)C2=O)c(C)o1	-3	0.52
CC(C)CN1CCC(NC2CCN(C)CC2)CC1	0	-0.04
COc1cccc(CN[C@H]2[C@H](O)[C@@H](n3ccnc3C)[C@@H]3OC[C@H]2O3)c1	29	-3.3
Cc1ccc(S(=O)(=O)N2CCO[C@H](c3ccccc3)C2)s1	-5	0.78
COC[C@@]1(NC(=O)c2cccc(C(F)(F)F)n2)COc2ccccc2C1	-4	0.71
CCC(=O)N(Cc1cccc(F)c1)c1ccc(CC(=O)NCCN2CCCC2)cc1	-2	0.24
O=C(OCc1ccccc1)N1C[C@H]2CC[C@@H](C1)N(Cc1cscn1)C2=O	10	-1.41
CN1C[C@@H](Cn2cnc(-c3ccccc3)c2-c2cccc3cccnc23)CC1=O	-11	1.52
Cc1noc(C)c1C(=O)Nc1cccc2cccnc12	-11	1.42
C[C@H]1CN(C2CCN(C(=O)Cn3ccc4ccccc43)CC2)CCO1	-12	2.39
O=C1N[C@H]2CCC[C@@H]1CN(CCN1CCN(c3ccccc3)CC1)C2	6	-0.83

Compound	% Inhibition [%]	Z score
O=C(NCC1CCN(c2cc(O)ncn2)CC1)c1ccoc1	4	-0.74
CN(CCc1ccncc1)CC(=O)Nc1ccc(Br)cc1	-4	0.59
C[C@@H](CCN(C)c1nccnc1N(C)C)N1CCCC1	-2	0.39
O=c1c(NC2CCOC3(CCOC3)C2)nccn1C1CC1 (stereo not given)	39	-3.54
Cc1cc(NC(=O)C(C)NC2CCCN(Cc3noc(C)n3)C2)no1 (stereo not given)	2	-0.35
COc1ccc(C(=O)N2CCC(F)(C(=O)NC3CC3)CC2)cc1F	-17	2.16
O=C(CN(Cc1ccccc1)C(=O)c1ccc(F)c(Cl)c1)N1CCNCC1	-7	0.68
Cc1nc2ccc(NC(=O)C3C4C=CC(C4)C3C(=O)O)cc2s1 (stereo not given)	7	-1.15
CC(C)C1=NO[C@H](C(=O)N(C)Cc2cccc(CN(C)C)c2)C1	17	-2.19
Cc1ncc(CN2CCC(NC(=O)c3cccnc3O)C(C)C2)s1 (stereo not given)	-10	1.53
O=C(Cc1cccnc1)N1CCN(c2ccc(Cl)c(Cl)c2)CC1	-9	1.08
Nc1n[nH]c2ncnc(N3CCc4ccccc4C3)c12	-15	1.97
Cc1ccc(C)c(N2C[C@@H](c3nc(C4CC4)no3)CC2=O)c1	11	-1.21
CCOc1ccc(NC(=O)C2[C@@H]3C=C[C@]4(O3)C(C(=O)NC3CCCCC3C)N(Cc3ccc(F)cc3)C(=O)[C@H]24)cc1 (stereo not given in full)	-6	0.94
CO[C@H]1C[C@H]2CC[C@@H](C1)N2c1nc(-c2ccccc2)no1	-1	0.13
c1ccc(C(CN2CCc3nncn3CC2)c2ccccc2)cc1	-6	0.77
O=C(CC[C@H]1CCCO1)Nc1ccc2c(c1)OCO2	-1	0.15
Cn1cc(S(=O)(=O)Nc2cc3c(cc2C(=O)O)CCCC3)cn1	-2	0.16
Cc1ccccc1[C@]1(O)CCN(Cc2cn(CC(N)=O)c3ccccc23)C1	-7	0.87
COc1ccc(-c2cnc3ncnn3c2N2CCCN(S(=O)(=O)c3ccccc3C(F)(F)F)CC2)cc1	-12	1.27
O=C(CN1CCC[C@@H]1CO)NCC1(N2CCOCC2)CCCCC1	-5	0.96
CC(O)(CNC1CC=C(c2ccc(F)cc2)CC1)c1ccc(F)cc1 (stereo not given)	5	-0.52

Compound	% Inhibition [%]	Z score
CCc1nc(CCc2ccc(F)c(F)c2)n(CC(=O)O)n1	5	-0.59
CN1CC2(C[C@H]1c1noc(-c3ccccn3)n1)CN(C(=O)C1CCCCC1)C2	-19	2.26
CO[C@@]12CC[C@@H](OCCO)C[C@@H]1N(c1cc(C)nc(N)n1)CC2	-1	0.08
Cc1cccc2[nH]cc(-c3csc(-c4cnccn4)n3)c12	3	-0.51
CC[C@H](O)C(F)(F)C(=O)NCc1ccc(O)c(OC)c1	-13	2.11
O=C(O)c1ccc(CN2CCC(c3ncc(Cl)cn3)CC2)cc1	-14	1.61
O=C(NCCOC[C@H]1CCCO1)Nc1cccc(F)c1	9	-0.79
O=S(=O)(Cl)c1c[nH]c(C(F)(F)F)c1	-13	1.54
COC(=O)CC(C)CC(C)NC(c1nncn1C)C(C)C (stereo not given)	2	-0.34
O=C(O)CCCN(Cc1ccccc1)C(=O)Cc1csc(Cc2ccc(F)cc2)n1	-2	0.3
Cn1cc(NC(=O)c2cn(-c3cc(F)c(F)c(F)c3)c(=O)c3ccccc23)cn1	-3	0.41
N#Cc1ccc(S(=O)(=O)N2CCc3n[nH]c(=O)n3CC2)cc1	-5	0.61
C=CCN(Cc1ncccc1C(=O)O)C1CCCC1	-5	0.96
COCCN1CC(=O)N[C@H]2CN(c3nc(C)nc4c3cnn4C)C[C@@H]2OCc2cccc(c2)Oc2cc(ccc2OC)CCC1=O	12	-1.64
O=C(c1ccc2[nH]nnc2c1)N1CC[C@@](F)(c2cc(F)cc(F)c2)C1	-15	1.81
Cc1nc(CN(C)[C@H]2CC[C@H](O)CC2)c(C)o1	-7	0.63
O=C(O)C1CCC(=O)N(C2CC2)C1c1ccccc1 (stereo not given)	40	-5.22
O=C(CCC1CCOC1)NC1CCCCC1CO (stereo not given)	-6	0.57
Cc1noc(C)c1NC(=O)CCCCOc1cccc(C#N)c1	-3	0.45
Cc1ccsc1[C@@H](O)CNS(=O)(=O)c1ccc(Cl)s1	-19	3.28
Cc1ccc(CN(C)CC(=O)NCc2ccc3c(c2)OCO3)s1	-7	0.83
Cc1ccc(C(=O)N2CCC(c3ccccc3)CC2)c(=O)[nH]1	-1	0.12

Compound	% Inhibition [%]	Z score
Cc1ccccc1Cn1nc(C2CCOCC2)nc1C1(CO)CC1	-11	1.23
OCCNc1nc2ccccc2n1Cc1coc(-c2cccs2)n1	3	-0.31
C[C@H](NC(=O)N[C@H]1CC[C@H](CO)CC1)c1cc2ccccc2o1	-13	1.72
CC(C)c1ccc(C2C(S(=O)(=O)NCc3ccco3)CON2C)cc1 (stereo not given)	-7	0.68
Cc1cc(O)c(C(=O)N[C@H]2CCc3ccccc32)cn1	-8	0.83
Nc1c(F)cc(Cl)cc1C(=O)NCCN1CCS(=O)(=O)CC1	7	-0.9
Cc1cc(CNC(=O)N[C@@]2(c3ccccc3)CC2(C)C)n(C)n1	0	0
CC(C)C(=O)N1CCCN(c2ccnc(Cc3ccc(F)cc3)n2)CC1	-8	0.83
O=C(NCCc1cccs1)c1cc(Cl)sc1Cl	1	-0.11
CN(C(=O)CCCc1ccc2[nH]c(=O)[nH]c2c1)C1C2CCOC2C1(C)C (stereo not given)	2	-0.2
CC(=O)c1cccc(NC(=O)c2nonc2C)c1	36	-4.66
COCC(=O)N1CCC(C(=O)N2CCC(O)(Cc3ccccc3)CC2)CC1	6	-1.12
Cc1n[nH]c(C)c1CCCNC(=O)[C@@H]1CCCN1Cc1ccccc1	8	-1.29
CCN1C(=O)COc2ccc(NC(=O)NCC[C@@H]3C[C@@H]4C=C[C@H]3C4)cc21	0	-0.03
CCO[C@@H](C)C(=O)N1CCc2[nH]nc(C3CC3)c2C1	-13	1.69
Cc1ccc(N(C)C(C)C)c(C(=O)N(C)Cc2cnn(C)c2)c1	3	-0.41
CCc1ccc(CNCc2cnc3n2CCCC3)o1	-8	0.85
CC(C)n1cccc1C(=O)NCc1noc(C(N)=O)n1	-2	0.25
CC1(c2nccc(NC(=O)[C@H]3CCO[C@@H]3c3ccccc3)n2)CC1	-9	0.88
